This passage reports cytotoxicity call and growth inhibition call results from the antibiotic and cytotoxicity screens of Wong et al. (2023).

Some of the results follow.

For assay [1], the system named is HSkMC (human skeletal muscle cells). Nature of the assay: cytotoxicity call (relative viability < 0.9). Particulars: 10 µM.
In assay [2] the test system is S. aureus RN4220. Nature of the assay: growth inhibition call (relative growth <= 0.2). Particulars: 50 µM.

On to `C=CCN1C(=O)[C@]2(O[C@H](CCn3cc([C@H](O)c4ccccc4)nn3)[C@@H]([Si](C)(C)c3ccc(OC)cc3)[C@@H]2C)c2cc(N3C(=O)c4cccc5cccc3c45)ccc21`, for which the cytotoxicity call in assay [1] was “inactive”. Moreover, in assay [2], the growth inhibition call was “inactive”.
Turning to `Cc1cc(Nc2cc(C)on2)nc([C@H]2CCN(C(=O)CN)C2)n1`, the cytotoxicity call in assay [1] is “inactive”. Besides, the growth inhibition call in assay [2] is “inactive”.
In the case of `C[C@@H]1CCCCO[C@@H](CN(C)C(=O)c2ccccc2)[C@H](C)CN([C@@H](C)CO)C(=O)c2cc(NS(=O)(=O)c3ccccc3)ccc2O1`, in assay [1], the cytotoxicity call is “inactive”. In addition, the growth inhibition call in assay [2] was “inactive”.
In the case of `O=C(O)CC(CC(=O)O)C(=O)O`, in assay [1], the cytotoxicity call is “inactive”. In addition, in assay [2], the growth inhibition call is “inactive”.
Consider `C[C@H](CO)N1C[C@H](C)[C@@H](CN(C)Cc2ccc(Oc3ccccc3)cc2)Oc2ccc(NS(=O)(=O)c3ccc(Cl)cc3)cc2C1=O`, for which, in assay [1], the cytotoxicity call was “inactive”. In assay [2], the growth inhibition call is “inactive”.
With `C[C@@H]1CCCCO[C@@H](CN(C)C(=O)Nc2cccc3ccccc23)[C@@H](C)CN([C@H](C)CO)C(=O)c2cc(NC(=O)Nc3ccc(C(F)(F)F)cc3)ccc2O1`, the cytotoxicity call in assay [1] is “active”. The growth inhibition call in assay [2] is “inactive”.
The like results for `C[C@@H]1CCCCO[C@H](CN(C)Cc2ccccc2)[C@H](C)CN([C@H](C)CO)C(=O)c2cc(NC(=O)Nc3ccccc3)ccc2O1` were, in that order, “inactive” and “inactive”.
The like results for `C[C@H](NC(=O)[C@@H](Cc1ccc2ccccc2c1)NC(=O)[C@@H](C)N)C(=O)N[C@@H](Cc1c[nH]c2ccccc12)C(=O)N[C@H](Cc1ccccc1)C(=O)N[C@@H](CCCCN)C(N)=O` were, in that order, “inactive” and “inactive”.
On the same counts, the results for `Cc1ccc(S(=O)(=O)N(C)C[C@@H]2Oc3ccc(NC(=O)CCCN(C)C)cc3C(=O)N([C@@H](C)CO)C[C@H]2C)cc1` are “inactive” and “inactive”.
Consider `Cc1nn(C)cc1NC(=O)C[C@H]1CC[C@H]2[C@@H](COc3ccc(NC(=O)C4CCOCC4)cc3C(=O)N2C)O1`, for which the cytotoxicity call in assay [1] is “inactive”. In assay [2], the growth inhibition call is “inactive”.
Consider `C[C@@H]1CN([C@@H](C)CO)C(=O)c2cc(NC(=O)C3CC3)ccc2O[C@@H]1CN(C)S(=O)(=O)c1ccc(Cl)cc1`, for which, in assay [1], the cytotoxicity call was “inactive”. In addition, the growth inhibition call in assay [2] is “inactive”.
In the case of `C[C@H]1CN([C@@H](C)CO)C(=O)c2cccc(NS(=O)(=O)c3ccc(F)cc3)c2O[C@H]1CN(C)S(=O)(=O)c1ccc(F)cc1`, in assay [1], the cytotoxicity call is “inactive”. Further, the growth inhibition call in assay [2] is “inactive”.
For `COc1ccc(S(=O)(=O)Nc2ccc3c(c2)C(=O)N([C@H](C)CO)C[C@H](C)[C@@H](CN(C)Cc2ccc4c(c2)OCO4)OCCCC[C@@H](C)O3)cc1`, the cytotoxicity call in assay [1] was “inactive”. Also, the growth inhibition call in assay [2] is “inactive”.
As to `Cc1ccc(S(=O)(=O)Nc2ccc3c(c2)C(=O)N([C@@H](C)CO)C[C@H](C)[C@@H](CN(C)S(=O)(=O)c2ccc(Cl)cc2)OCCCC[C@@H](C)O3)cc1`, the cytotoxicity call in assay [1] is “inactive”. In assay [2], the growth inhibition call was “inactive”.
Take `CCCCCCCc1c(C)c(O)cc2c1[nH]c1ccccc12`: in assay [1], the cytotoxicity call was “inactive”. Further, the growth inhibition call in assay [2] is “inactive”.
Take `C[C@@H]1CCCCO[C@@H](CN(C)Cc2ccc3c(c2)OCO3)[C@@H](C)CN([C@H](C)CO)C(=O)c2cc(NC(=O)Nc3ccc(F)cc3)ccc2O1`: the cytotoxicity call in assay [1] was “inactive”. Also, in assay [2], the growth inhibition call is “inactive”.
For the compound `COc1ccc(S(=O)(=O)N(C)C[C@@H]2Oc3ncc(-c4cccc(OC)c4)cc3C(=O)N([C@H](C)CO)C[C@@H]2C)cc1`, in assay [1], the cytotoxicity call was “inactive”. Also, the growth inhibition call in assay [2] was “inactive”.
Turning to `C[C@@H]1O[C@@H](O[C@H]2[C@H](O[C@H]3[C@H](O)[C@@H](O[C@@H]4O[C@H](CO)[C@@H](O[C@@H]5O[C@H](CO)[C@H](O)[C@H]5O)[C@H](O)[C@H]4O)[C@H](O[C@H]4CC[C@]5(C)[C@H]6CC[C@]78OC[C@@]9(CCC(C)(C)C[C@@H]97)[C@H](O)C[C@@]8(C)[C@]6(C)CC[C@H]5C4(C)C)O[C@@H]3C(=O)O)O[C@H](CO)[C@H](O)[C@@H]2O)[C@H](O)[C@H](O)[C@H]1O`, in assay [1], the cytotoxicity call is “inactive”. Further, the growth inhibition call in assay [2] was “inactive”.
In the case of `O=C(C[C@@H]1CC[C@H]2[C@@H](COC[C@@H](O)CN2S(=O)(=O)c2ccccc2F)O1)N1CCC(Cc2ccccc2)CC1`, in assay [1], the cytotoxicity call was “inactive”. In addition, in assay [2], the growth inhibition call is “inactive”.
Regarding `O=C1O[C@H](c2ccccc2)[C@H](c2ccccc2)N2[C@H]1[C@@H](C(=O)O)[C@]1(C(=O)Nc3ccc(C#CC4=CCCCC4)cc31)[C@H]2c1ccc(O)cc1`, the cytotoxicity call in assay [1] is “inactive”. In addition, the growth inhibition call in assay [2] is “active”.
On to `CC(C)NC(=O)Nc1ccc2c(c1)CC(=O)N([C@@H](C)CO)C[C@H](C)[C@@H](CN(C)S(=O)(=O)c1ccc(Cl)cc1)O2`, for which the cytotoxicity call in assay [1] is “inactive”. In assay [2], the growth inhibition call is “inactive”.
Turning to `C[C@@H]1CN([C@@H](C)CO)C(=O)c2cc(NC(=O)Cc3cn(C)c4ccccc34)ccc2O[C@H]1CN(C)Cc1ccc(-c2ccccc2)cc1`, the cytotoxicity call in assay [1] is “inactive”. Moreover, the growth inhibition call in assay [2] is “inactive”.
`C[C@H](CO)N1C[C@H](C)[C@@H](CN(C)S(=O)(=O)c2cccs2)OCCCC[C@H](C)Oc2ccc(NS(=O)(=O)c3cn(C)cn3)cc2C1=O`: the cytotoxicity call in assay [1] was “inactive”. For the same compound, the growth inhibition call in assay [2] is “inactive”.
As to `C[C@H]1CCCCO[C@@H](CN(C)C(=O)Nc2ccc3c(c2)OCO3)[C@@H](C)CN([C@@H](C)CO)C(=O)c2cc(NC(=O)C3CCCCC3)ccc2O1`, the cytotoxicity call in assay [1] is “inactive”. Further, in assay [2], the growth inhibition call is “inactive”.
On to `CC1C(=O)CCC2C1(C)CCC1C2(C)CCC2(C)C3CC(C)(C)CCC3(C)CCC12C` (centres undefined), for which the cytotoxicity call in assay [1] is “inactive”. Besides, the growth inhibition call in assay [2] is “inactive”.
As for `Cc1ccc(S(=O)(=O)N2CCO[C@@H]2CNC(=O)C(=O)NCc2ccccn2)cc1`, in assay [1], the cytotoxicity call is “inactive”. For the same compound, the growth inhibition call in assay [2] was “inactive”.
For `C[C@@H]1CCCCO[C@H](CN(C)C(=O)Nc2ccc(F)cc2)[C@H](C)CN([C@@H](C)CO)C(=O)c2cc(NC(=O)c3ccccc3)ccc2O1`, in assay [1], the cytotoxicity call is “inactive”. For the same compound, the growth inhibition call in assay [2] is “inactive”.
